Test results as given in the RNAGym collection of RNA variant scans (doi:10.1073/pnas.2313332121).
Variants at the background level are over-represented here.

B1: TPR 5TU (parent)
chain: GGAUCUUCUCGAUCUAACAAAAAAGACAAAUCUGCCACAAAGCUUGAGAGCAUCUUCGGAUGCAGAGGCGGCAGCCUUCGGUGGCGCGAUAGCGCCAACGUUCUCAACUAUGACACGCAAAACGCGUGCUCCGUUGAAUGGAGUUUAUCAUG

Variants of: B1
Assay: polymerase ribozyme fitness, log enrichment relative to wild type (log ratio); higher = more active; in vitro selection for triplet polymerase activity
In short: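 Both subunits of a heterodimeric triplet polymerase ribozyme were given their own mutant library, built by PCR and transcribed. Each library was annealed with a biotinylated primer, the partner subunit and triplets, incubated frozen at −7 °C, and its extended constructs gel-excised, captured on streptavidin beads and amplified by RT-PCR, all in one round done in triplicate. Fitness is the logarithm of genotype enrichment relative to wild-type enrichment, with replicates averaged by inverse-variance weighting. That logarithm is base 2, and Illumina-sequenced genotypes needed ≥10 input reads and ≥1 read per output.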

G58A C63G G86U G94C A137C G141U U151C and U56G C108A cannot be ordered by “polymerase ribozyme fitness (log ratio)” value: no more than -4.2 for the first, no more than -4.2 for the second.

U56C G68U A89G C99U U146G and U56G G70U C85U U151A cannot be ordered by “polymerase ribozyme fitness (log ratio)” value: no more than -4.2 for the first, no more than -4.2 for the second.

Going from C57U U135G to C57U C87U C103G, the “polymerase ribozyme fitness (log ratio)” value rises from -4.05 to -1.94.

A60G A66G G83U G117A and G59U G68C C75U C85G C118G cannot be ordered by “polymerase ribozyme fitness (log ratio)” value: no more than -4.2 for the first, no more than -4.2 for the second.

U56A U78G C93G and G58C C96G U101A C103A cannot be ordered by “polymerase ribozyme fitness (log ratio)” value: no more than -4.2 for the first, no more than -4.2 for the second.

Compared with G58U C87G C93G, G58A C87U G92A A150G is higher in “polymerase ribozyme fitness (log ratio)” value: no more than -4.2 for the first, -0.884 for the second.

Compared with G59A G88C, C57A A113C A119U is higher in “polymerase ribozyme fitness (log ratio)” value: -3.73 for the first, -1.37 for the second.

G59C C85G G136A C149G and G59A C114U G126A U146G cannot be ordered by “polymerase ribozyme fitness (log ratio)” value: no more than -4.2 for the first, no more than -4.2 for the second.

Going from C57A G84U to C57U U78A G80A A138G U139G, the “polymerase ribozyme fitness (log ratio)” value falls from -1.29 to no more than -4.2.

G59C G86C C96U A121U U134A and C57G G88A C96U U139C A142G cannot be ordered by “polymerase ribozyme fitness (log ratio)” value: no more than -4.2 for the first, no more than -4.2 for the second.

A60C G62C C96U A138G U139A and C57G C85A A97U A110G A113U G117A A138C G140C cannot be ordered by “polymerase ribozyme fitness (log ratio)” value: no more than -4.2 for the first, no more than -4.2 for the second.

Going from C57U C132A G141U to G58C U135G, the “polymerase ribozyme fitness (log ratio)” value rises from no more than -4.2 to -3.82.

U56G G59U C87A A106G A107G C116U G140C and G58C C85U C96U A150C G152U cannot be ordered by “polymerase ribozyme fitness (log ratio)” value: no more than -4.2 for the first, no more than -4.2 for the second.

C57A G71C G88C C108U and G58C G62C A73U G94A A107U U144A cannot be ordered by “polymerase ribozyme fitness (log ratio)” value: no more than -4.2 for the first, no more than -4.2 for the second.

Compared with G59C U102G C132U U139G, G59C A106U is higher in “polymerase ribozyme fitness (log ratio)” value: no more than -4.2 for the first, -0.917 for the second.

G58C C96A A115U G128U and G58C A60C A66U G92A A97U G133U G141C cannot be ordered by “polymerase ribozyme fitness (log ratio)” value: no more than -4.2 for the first, no more than -4.2 for the second.

C57G A60U G68A A98U U111A A119U G140A and G58C G80C C95U cannot be ordered by “polymerase ribozyme fitness (log ratio)” value: no more than -4.2 for the first, no more than -4.2 for the second.

First: C57A A138C
Second: C57G G59U C85U
The “polymerase ribozyme fitness (log ratio)” value of the first is lower: -3.77 for the first, -1.11 for the second.

Going from C57G C85A A120G G136A U139A to C57A C95U C149U, the “polymerase ribozyme fitness (log ratio)” value rises from no more than -4.2 to -0.536.

Compared with C57A A89C G94U A142G, G58U A60U A64U G88A U109A C129G is lower in “polymerase ribozyme fitness (log ratio)” value: -3.19 for the first, no more than -4.2 for the second.

G59U C85G C93A and G59C U61A A66C U101G C114U cannot be ordered by “polymerase ribozyme fitness (log ratio)” value: no more than -4.2 for the first, no more than -4.2 for the second.

G58U G88C U130G and U56G C79U G83A C87A G92U A106G cannot be ordered by “polymerase ribozyme fitness (log ratio)” value: no more than -4.2 for the first, no more than -4.2 for the second.

Compared with C57U G58A A60C C76A C85G U90G C108U U134G, G58C U134G is higher in “polymerase ribozyme fitness (log ratio)” value: no more than -4.2 for the first, -3.93 for the second.

G59U G83A A110C U145A and A60C G74U U78G G81U U90C A120C cannot be ordered by “polymerase ribozyme fitness (log ratio)” value: no more than -4.2 for the first, no more than -4.2 for the second.

Compared with G58U C123U, G58A G86U A119U is lower in “polymerase ribozyme fitness (log ratio)” value: 0.837 for the first, -2.06 for the second.

Compared with G59A G94C, C57U G74A C125U C149G is lower in “polymerase ribozyme fitness (log ratio)” value: -0.903 for the first, no more than -4.2 for the second.

Going from C57A G92U C105G to A60G G117A, the “polymerase ribozyme fitness (log ratio)” value rises from -1.2 to 0.434.

First: G58C G86U C105A
Second: G58A A121C
The “polymerase ribozyme fitness (log ratio)” value of the first is lower: -2.89 for the first, 0.557 for the second.

G58C U61C G70C C76G C96U A138G G140U C149G and G58C G88U C93A A107G U130A cannot be ordered by “polymerase ribozyme fitness (log ratio)” value: no more than -4.2 for the first, no more than -4.2 for the second.

U56G A60U G84A G117C U127A A147U and C57U C95U A142C U144G cannot be ordered by “polymerase ribozyme fitness (log ratio)” value: no more than -4.2 for the first, no more than -4.2 for the second.

Going from G59C G86U C87A A91G A98G A110U C118G to G58U C85G, the “polymerase ribozyme fitness (log ratio)” value rises from no more than -4.2 to -1.61.

Compared with C57U A97G, A60G U77G G84U A91U is lower in “polymerase ribozyme fitness (log ratio)” value: -0.11 for the first, no more than -4.2 for the second.

Going from G59C G86U C95U to G59C G92A, the “polymerase ribozyme fitness (log ratio)” value falls from -2.13 to -2.89.

C57G C76A C87G C108U G136U G143C C149U and A60G C69A C108G C125G cannot be ordered by “polymerase ribozyme fitness (log ratio)” value: no more than -4.2 for the first, no more than -4.2 for the second.

G59U G67U A89G A137U A138U and A60C G100U C103G U109C G128A U134C cannot be ordered by “polymerase ribozyme fitness (log ratio)” value: no more than -4.2 for the first, no more than -4.2 for the second.

A60G C93A A97C A110U C123U U130G G133A and A60C C76G cannot be ordered by “polymerase ribozyme fitness (log ratio)” value: no more than -4.2 for the first, no more than -4.2 for the second.

First: G58U A137C
Second: G59U A91U
The “polymerase ribozyme fitness (log ratio)” value of the first is higher: -3.03 for the first, -4.12 for the second.

Compared with G58A G83A G140U, G59C G71A G100A C129A is lower in “polymerase ribozyme fitness (log ratio)” value: -3.64 for the first, no more than -4.2 for the second.

G58C C72U G94U U102C U139A and G59U C79A G94U A119U U127G cannot be ordered by “polymerase ribozyme fitness (log ratio)” value: no more than -4.2 for the first, no more than -4.2 for the second.

U56G C69A G81C U139A and U56C G88U G92A C99U G126U cannot be ordered by “polymerase ribozyme fitness (log ratio)” value: no more than -4.2 for the first, no more than -4.2 for the second.

Going from A60G C116U to G58A A64C C93U U134A, the “polymerase ribozyme fitness (log ratio)” value falls from 0.141 to no more than -4.2.

G59A G84A C85U A106G C114A A138G and A60C C76U A107C cannot be ordered by “polymerase ribozyme fitness (log ratio)” value: no more than -4.2 for the first, no more than -4.2 for the second.
